Test results as given in PubChem BioAssay AID1508624 (National Center for Advancing Translational Sciences (NCATS), 2021).
Hit rate of the full screen: of about 48,000 compounds, about 120 (0.25%) were called active. Another 4% or so got no clear call; they are omitted. The call rests on the fitted dose curve; in most records, active means well fitted activation curve with a large enough effect; inconclusive means small, poorly fitted or top-dose-only effect, or another doubt; inactive means no such curve, though single readings can be large or run the other way. The list shows a part of the results.

Assay: Primary qHTS for Identification of Small Molecule Activators of Huntingtin-Antisense Promoter Activity; further: nearly all actives have a fitted effect of over 55% in size
Settings: HEK293 HTT-AS promoter firefly luciferase reporter, 24 h; series mostly up to 57.5 µM; activity change, positive = activation: at the top concentration
Summary of the method: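 HEK293 luciferase promoter-reporter cells (2,500/well) plated 24 h, then compounds added at up to 57.5 uM final for 24 h at 37 °C. Firefly luminescence by Dual-Glo, normalized to vehicle (0%) and zero RLU (-100%).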

Activity change, positive = activation, inactive:
Cc1ccc(NC(=O)C2CCCN(c3ncnc4c3nc3n4CCCCC3)C2)cc1F (stereo not given) -27.9%
CCOc1ccc(NC(=O)c2c(NC(=O)c3ccco3)sc3c2CCC(C(C)(C)C)C3)cc1 (stereo not given) -2.75%
Cc1nc2cccnc2n1-c1cccc(C(=O)NCc2ccc(OC(C)C)cc2)c1 -28.2%
O=C(O)CC(NS(=O)(=O)c1ccc(Cl)s1)c1ccccc1 (stereo not given) -11.2%
O=C(Nc1cccc(C(F)(F)F)c1)C1CCN(c2nnc(-n3cccc3)s2)CC1 -4.09%
COc1cc(NS(=O)(=O)c2ccc(NC(=O)C(C)Oc3ccc(Cl)cc3Cl)cc2)nc(OC)n1 (stereo not given) -19.3%
COc1ccc(Nc2c(-c3ccc(Cl)cc3)nc3cnccn23)cc1OC -23.3%
CCC12CN3CC(C)(CN(C1)C3c1ccc(O)cc1O)C2=O (stereo not given) 1.91%
O=C(NCc1ccccc1Cl)C1CCN(S(=O)(=O)c2ccc3c(c2)CCCN3C(=O)C2CCC2)CC1 -19%
Cc1cc(C)cc(Oc2coc3c(CN4CCN(C)CC4)c(O)ccc3c2=O)c1 12.5% [at 11.5 µM, percent change from vehicle, -100% = no light]
COc1cccc(CNC(=O)c2nnn(CC(=O)Nc3cc(Cl)ccc3C)c2N)c1 -7.09%
O=S(=O)(c1ccc(F)cc1)N1CCC(Oc2ccc(-n3cnnn3)cc2)CC1 -18.9%
Cc1ccc(Nc2cc(C)nc3nc(Cc4ccc(Cl)cc4)nn23)cc1 -32.3%
COc1cccc(CNC(=O)Cn2c(=O)oc3cc(S(=O)(=O)N4CCCC4)ccc32)c1 -29.5%
Cc1ccc(-c2ccc(=O)n(Cc3ccc(F)cc3)n2)cc1 -18.8%
CCC(=O)N1CCc2cc(Br)cc(S(=O)(=O)CCC(=O)Nc3cccc(CC)c3)c21 2.79%
CC(NC(=O)C1(c2cccs2)CCOCC1)c1ccccc1 (stereo not given) -12.2%
CCn1cc(C(=O)N2CCN(c3cc(Cl)ccc3C)CC2)c2cc(OC)c(OC)cc2c1=O -5.06%
CCCN(CCC)CCCNC(=O)c1cc2c(=O)oc3ccc(C)cc3c2s1 -5.25%
CCOc1ccc(CCNC(=O)CCCc2cc(-c3ccc(OCC)cc3)on2)cc1 -77.5%
CCn1cc(S(=O)(=O)c2ccc(OC)cc2)c(=O)c2cc(F)c(N3CCC(C)CC3)cc21 -5.54%
CNCCCC12CCC(c3ccccc31)c1ccccc12
CCCN(CCC)CCCNC(=O)C1CCC(CNS(=O)(=O)c2cccc3nsnc23)CC1 (stereo not given) 11.7%
Cc1ccc(CN(Cc2ccco2)C(=O)COc2c(C)cc(C)cc2C)cc1 -39.6%
Oc1ccc(-c2nc3ccccn3c2Nc2ccc3c(c2)OCCO3)cc1 18.7%
CCCCNS(=O)(=O)c1ccc2nc(-c3cccnc3)cc(C(=O)NCCC)c2c1 -18.3%
CC(=CC(=O)Nc1ccccc1C(=O)O)c1ccc2ccccc2c1 -0.3%
COCCNC(=O)CSc1c2c(nc3cc(Cl)ccc13)CCCC2 -21.3%
NCCCCCc1nnc(SCc2ccc(F)cc2)o1 -27.5%
NCCNc1cccc2ccccc12 -15.7%
COCCCNC(=O)c1ccc2nc(Cc3ccc(OC)cc3)oc2c1 -3.47%
CCOc1ccc(CNC(=O)C2CCN(S(=O)(=O)N3CCCCC3)CC2)cc1 -20.4%
COc1cccc(C(=O)Nc2cc(-c3cn4cccnc4n3)ccc2C)c1OC -5.26%
CCOc1ccc(NC(=O)c2sc3nc4c(cc3c2N)CCCCCC4)cc1 -29.4%
Cc1ccc(OCC(=O)Nc2ccccc2C(=O)OCc2cc(=O)n3nc(C4CC4)sc3n2)cc1 11.3%
O=C(c1cccs1)N(Cc1cccnc1)c1nc2ccc(F)cc2s1 -18.9%
CC1CCN(C(=O)c2c(NC(=O)c3ccccc3F)sc3c2CCC(C(C)(C)C)C3)CC1 (stereo not given) -5.1%
Cc1nc2ccccn2c(=O)c1NC(=O)c1c(F)cccc1F -7.08%
CCOc1cc(C2C(C(=O)OC)=C(C)NC3=C2C(=O)c2ccccc23)c(Br)cc1OC (stereo not given) -33.5%
Cc1cn2cc(C(=O)N(C)CCO)cc(N[C@@H]3CCOc4cccc(C)c43)c2n1 -20.5%
CCOCCCNC(=O)Cn1nc(C)n2c(cc3cc(C)ccc32)c1=O 19.6%
Cc1coc2c1C(=O)C(=O)c1c-2ccc2c1CCCC2(C)C 5.09%
CCCCN(CCCNC(=O)CN1N=C(c2ccccc2)CCC1=O)c1ccccc1 -30.3%
O=C(COc1ccccc1Cl)Nc1nc2c(s1)CCCC2 24.1%
CCCCSc1nnc2n(-c3cccc(C)c3)c(=O)c3c4c(sc3n12)CCCC4 0%
Clc1ccc(-c2csc(=Nc3ccccc3)n2Cc2ccc3c(c2)OCO3)cc1 9.26%
Cc1ccc2nc(COc3ccc(NC(=O)COc4ccccc4F)cc3)cc(=O)n2c1 0.399%
Cc1cccc(OCc2nc(C#N)c(NCc3ccccc3Cl)o2)c1 21.1%
CCOC(=O)C1CCN(C(=O)CSc2n[nH]c(-c3ccccc3)n2)CC1 -5.16%
COc1ccc(NC(=O)CSc2nc3ccccc3[nH]2)cc1 4.97%
Cc1ccc(C)c(N2CCN(C(=O)Cn3c(=O)c4cccn4c4ccc(F)cc43)CC2)c1 -2.25%
Cc1ccc(NC(=O)CSCn2nnc3c(=O)[nH]c(Cc4ccc(F)cc4)nc32)c(C)c1 -3.19%
COc1cc2c(=O)c(C(=O)c3ccc(C)c(C)c3)cn(Cc3ccccc3)c2cc1OC -15.2%
COc1ccc(-c2cc3nc(C)c(CCC(=O)N4CCN(c5ccccc5)CC4)c(C)n3n2)c(OC)c1 -11.7%
Cc1cc(C)c2nc(NC(=O)c3ccc(S(=O)(=O)N4CCCC4)cc3)sc2c1 -27.2%
O=C(Oc1ccccc1)c1ccccc1O -5.04%
CCn1c(=O)c2cc(C(=O)Nc3cccc(C(F)(F)F)c3)sc2c2ccccc21 2.73%
COc1ccc(C(=O)Nc2ccc(-c3nc4ncccc4o3)cc2C)cc1Br -11.2%
CCNC(=O)CCCN1C(=O)CCn2nc(-c3cccn3C)cc21 -7.23%
O=S(=O)(c1ccc(C2CCCCC2)cc1)N1CCN(c2cc(Cl)ccc2Cl)CC1 -7.03%
COc1ccc(-n2c(/C=C/c3cccc4ccccc34)nc3ccccc3c2=O)cc1OC -15.9%
CCC(Sc1nc2nccnc2c(=O)n1Cc1ccccc1Cl)C(=O)NC1CCCCC1 (stereo not given) -18%
Cc1ccc2nc(NCc3ccccc3)c3nncn3c2c1 -9.19%
CCn1cc(C(=O)NCCc2ccc(Cl)cc2)c(=O)c2cc(S(=O)(=O)N(C)C3CCCCC3)ccc21 -8.37%
Fc1ccc(CNCCCSc2nnnn2-c2ccccc2)cc1 -15.6%
COc1ccc(NC(=O)CSCc2cc(=O)c3cc(C)ccc3[nH]2)cc1 -16.9%
COc1ccc(Cn2c(C(=O)O)c(CNCc3ccc(OC)cc3OC)c3ccc(C)cc32)cc1 -15.6%
COc1ccc(CCCc2nnc(SCC(=O)Nc3cc(F)ccc3C)o2)cc1 17.5% [at 11.5 µM, percent change from vehicle, -100% = no light]
CC(=O)OCC(=O)[C@@]1(O)[C@H](C)C[C@H]2[C@@H]3CCC4=CC(=O)C=C[C@]4(C)[C@@]3(F)[C@@H](O)C[C@@]21C -6.78%
COc1cccc2cc(-c3nc(C4CCC(C(=O)O)CC4)n4ncnc(N)c34)[nH]c12 (stereo not given) -23.2%
COc1ncnc(NS(=O)(=O)c2ccc(N)cc2)c1OC
CCOc1ccc(CNC(=O)c2ccc3c(Cl)c4c(nc3c2)CCCC4)cc1 -7.99%
CN(C(=O)CSc1nc2ccc(NC(=O)c3cccc(F)c3)cc2s1)c1ccccc1 -58.4%
CCOC(=O)c1c(NC(C)=O)c2c3c(sc2n1Cc1c(C)cc(C)cc1C)CCCC3 -20.4%
CCOc1ccc(N(CC(=O)NCc2ccc(OC)cc2)S(=O)(=O)c2c(C)[nH]c(=O)[nH]c2=O)cc1 8% [at 11.5 µM, percent change from vehicle, -100% = no light]
COc1cccc(C(=O)N(Cc2cccc(F)c2)C2CCS(=O)(=O)C2)c1 (stereo not given) -9.74%
Cc1ccc2c(c1)N(CC(=O)Nc1ccccc1C(F)(F)F)C(=O)c1cccnc1O2 -25.1%
Cc1c(Cl)cccc1NC(=O)c1oc2ccc(S(=O)(=O)N3CCCCCC3)cc2c1C 3.18%
CCOC(=O)c1cc2c(=O)n3ccccc3nc2n(Cc2ccco2)c1=NC(=O)c1ccc(C(C)(C)C)cc1 -2.18%
O=C(Nc1cccc(F)c1)c1ccc2oc(=O)n(Cc3ccccc3)c2c1 -37.2%
COc1cccc(OC)c1C(=O)Nc1ccc(-c2nc3ncccc3o2)cc1 -3.19%
Cc1cccc(N(CC(=O)NCCc2ccccc2)S(=O)(=O)c2ccccc2)c1C 26.2% [at 11.5 µM, percent change from vehicle, -100% = no light]
Cc1ccc(-c2csc(-c3c(N)c(C(=O)c4ccc5c(c4)OCO5)n4ccccc34)n2)cc1C 4.05%
COc1ccc(CCNC(=O)c2cc3c(=O)n4cccc(C)c4nc3n2C)cc1 -3.9%
CCC(CC)C(=O)Nc1nnc(S(=O)(=O)N(C)c2cc(C)cc(C)c2)s1 -36.8%
COc1ccc(C(=O)c2ccccc2)c(O)c1 12.7%
COc1ccc(NC(=O)CC2Oc3ccc(C)cc3NC2=O)cc1Cl (stereo not given) -26.6%
COc1c(N2C[C@@H]3CCCN[C@@H]3C2)c(F)cc2c(=O)c(C(=O)O)cn(C3CC3)c12 -5.9%
Cc1cc(C)cc(-n2ccn(CC(=O)NCCc3ccccc3)c(=O)c2=O)c1 -1.54%
COc1cc2c(cc1OC)C(COc1ccc3c(C)cc(=O)oc3c1)N(C(=O)Cc1ccc(F)cc1)CC2 (stereo not given) 0%
Fc1ccccc1Nc1c2c(nc3ccccc13)CCC2 -40.4%
COc1cccc2cc(C(=O)N3CCN(c4cc(C)ccc4C)CC3)c(=O)oc12 -20.2%
Cc1nc(SCC(=O)N2CCN(c3ccccc3)CC2)[nH]c(=O)c1C -7.58%
CCc1ccccc1NC(=O)CN(C)S(=O)(=O)c1cccc2nsnc12 4.87%
CCN(CC)c1ccc(NC(=O)c2c(C)nn(-c3ccc(F)cc3)c2-n2cccc2)c(C)c1 -31.5%
